{"source": "the supplement of paper PMC10126150", "note": "Values marked as one replicate rest on one cluster of the flow cell; about a third of the high ones do not repeat.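 Note: ATP exposure 15 min at 22 °C before imaging.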", "data": [{"system": "ATP", "assay": "switch fluorescence ratio, 500 uM ATP over buffer (Cy3 cluster intensity, sum of 5 cycles each) (fold (ratio)); higher = stronger signal-on switching upon ATP binding; sequences stand for … in TCGTCGGCAGCGTCAGATGTGTATAAGAGACAGTTTTTTTTTTTTTTTTTTTTTTTTT…TC", "details": "aptamer strand: ATP DNA aptamer (quencher-CACCTGGGGGAGTATTGCGGAGGAAGG + anchor), 100 nM annealed; ATP concentration: 500 uM; one replicate", "summary_of_the_method": "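Clusters with intensities outside 100-1000 RFU were excluded. The remaining Cy3-labelled switching-strand clusters on a modified Illumina MiSeq flow-cell had been annealed to 100 nM quencher-labelled ATP aptamer and imaged in selection buffer, then after 15 min with 500 uM ATP at 22 °C, for five cycles separated by NaOH stripping and re-annealing. The fluorescence ratio, averaged per switch-domain sequence, is each cluster's summed target-cycle Cy3 intensity over its summed buffer-cycle Cy3 intensity.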", "values": [{"sequence": "TAATGGAAGA", "switch fluorescence ratio": 0.936}, {"sequence": "GATTAGATGG", "switch fluorescence ratio": 0.962}, {"sequence": "CCAGCCGTGT", "switch fluorescence ratio": 1.08}, {"sequence": "GAGTTAGCTT", "switch fluorescence ratio": 0.967}, {"sequence": "TTTCACGCT", "switch fluorescence ratio": 1.04}, {"sequence": "GGGGGATCAA", "switch fluorescence ratio": 0.996}, {"sequence": "TCTACTGAGG", "switch fluorescence ratio": 1.02}, {"sequence": "TTCAGAGATT", "switch fluorescence ratio": 0.996}, {"sequence": "AAATCACCCC", "switch fluorescence ratio": 1.12}, {"sequence": "GATAGAGCGA", "switch fluorescence ratio": 1.02}, {"sequence": "ACCCTGTCTG", "switch fluorescence ratio": 1.02}, {"sequence": "TCTGTGCAGA", "switch fluorescence ratio": 0.999}, {"sequence": "TAGGCGAGAT", "switch fluorescence ratio": 0.985}, {"sequence": "TAGTTCTAGC", "switch fluorescence ratio": 0.972}, {"sequence": "CATGTCTTTT", "switch fluorescence ratio": 0.981}, {"sequence": "ATCTTATCG", "switch fluorescence ratio": 0.968}, {"sequence": "CGCAGGTAAA", "switch fluorescence ratio": 1.02}, {"sequence": "TGAGAGC", "switch fluorescence ratio": 1.03}, {"sequence": "CTATGCCCGA", "switch fluorescence ratio": 1.05}, {"sequence": "GGGCAAAACA", "switch fluorescence ratio": 3.94}, {"sequence": "TGTCAGCAGC", "switch fluorescence ratio": 1.07}, {"sequence": "GACTTGCCAA", "switch fluorescence ratio": 1.11}, {"sequence": "CTAGTTGCTG", "switch fluorescence ratio": 0.995}, {"sequence": "GGCCATAATG", "switch fluorescence ratio": 1.04}, {"sequence": "CAAGGCACCG", "switch fluorescence ratio": 1.04}, {"sequence": "CCTCACCCCG", "switch fluorescence ratio": 1.37}, {"sequence": "CTGACTCGAT", "switch fluorescence ratio": 1.69}, {"sequence": "CGTGTCCACA", "switch fluorescence ratio": 0.998}, {"sequence": "CATTCAGTTG", "switch fluorescence ratio": 0.998}, {"sequence": "CGTTTCGCG", "switch fluorescence ratio": 0.963}, {"sequence": "AAACATTAAC", "switch fluorescence ratio": 1.1}, {"sequence": "AGAAACTTAC", "switch fluorescence ratio": 1.51}, {"sequence": "ACTTACGACT", "switch fluorescence ratio": 1.35}, {"sequence": "TTGCCAGCAA", "switch fluorescence ratio": 1.64}, {"sequence": "ACCTCTTGAT", "switch fluorescence ratio": 0.984}, {"sequence": "ATGTGCCCGC", "switch fluorescence ratio": 1.03}, {"sequence": "TGGTCTTGGA", "switch fluorescence ratio": 0.995}, {"sequence": "TTATACGCAG", "switch fluorescence ratio": 1.07}, {"sequence": "ATCTGACGAG", "switch fluorescence ratio": 0.98}, {"sequence": "TTTGGGTCCG", "switch fluorescence ratio": 0.979}, {"sequence": "ATACCCCTTC", "switch fluorescence ratio": 1.14}, {"sequence": "ATTGGTCTGG", "switch fluorescence ratio": 0.962}, {"sequence": "GTTACCCCCG", "switch fluorescence ratio": 1.35}, {"sequence": "CAGGCGAAGT", "switch fluorescence ratio": 0.957}, {"sequence": "AAGCTGCGTC", "switch fluorescence ratio": 1.02}, {"sequence": "AATTCATAAG", "switch fluorescence ratio": 0.943}, {"sequence": "CAGGTAGCCA", "switch fluorescence ratio": 0.974}, {"sequence": "GGATAAATAA", "switch fluorescence ratio": 0.985}, {"sequence": "AATCTGCT", "switch fluorescence ratio": 1.01}, {"sequence": "ATTAATCATA", "switch fluorescence ratio": 0.986}, {"sequence": "GTACTTTTTA", "switch fluorescence ratio": 1.03}, {"sequence": "TGGTTCCGTC", "switch fluorescence ratio": 1.02}, {"sequence": "CTGAGATAAC", "switch fluorescence ratio": 1.06}, {"sequence": "TCACCTCTGG", "switch fluorescence ratio": 0.948}, {"sequence": "AGTCCTGGAT", "switch fluorescence ratio": 0.989}, {"sequence": "GCGTCCTATC", "switch fluorescence ratio": 1.04}, {"sequence": "TTCGATAGTA", "switch fluorescence ratio": 0.948}, {"sequence": "GGTAAATGGT", "switch fluorescence ratio": 0.938}, {"sequence": "CGTACTTATG", "switch fluorescence ratio": 1.02}, {"sequence": "ATAGATGCTG", "switch fluorescence ratio": 0.969}, {"sequence": "GTTTGCTCTA", "switch fluorescence ratio": 0.94}, {"sequence": "TTATACCGGA", "switch fluorescence ratio": 0.989}, {"sequence": "CCATCAGGGT", "switch fluorescence ratio": 1.07}, {"sequence": "TCGTATAAGT", "switch fluorescence ratio": 1.01}, {"sequence": "CAAGGTTGGC", "switch fluorescence ratio": 1.09}, {"sequence": "GAGTTCAGTC", "switch fluorescence ratio": 0.969}, {"sequence": "ATTCCAGAGA", "switch fluorescence ratio": 0.968}, {"sequence": "GAAGCACGTT", "switch fluorescence ratio": 1.01}, {"sequence": "ACTCCTCAGC", "switch fluorescence ratio": 1.93}, {"sequence": "TCATATGGGA", "switch fluorescence ratio": 1.04}, {"sequence": "TCGAGAACTG", "switch fluorescence ratio": 1.09}, {"sequence": "CTTTAATGCT", "switch fluorescence ratio": 1.12}, {"sequence": "TAGAGAGTGG", "switch fluorescence ratio": 0.978}, {"sequence": "TTTATTGCCA", "switch fluorescence ratio": 0.997}, {"sequence": "AAATTTGAAC", "switch fluorescence ratio": 0.94}, {"sequence": "GGTAGTCGGC", "switch fluorescence ratio": 0.996}, {"sequence": "GCCGTCTGTT", "switch fluorescence ratio": 1.02}, {"sequence": "TAGCTGATCT", "switch fluorescence ratio": 0.993}, {"sequence": "AGTATCGAGT", "switch fluorescence ratio": 0.985}, {"sequence": "TGACTCACGC", "switch fluorescence ratio": 1.44}, {"sequence": "TCGTCTAGTA", "switch fluorescence ratio": 0.962}, {"sequence": "ATATGTCCTT", "switch fluorescence ratio": 1.02}, {"sequence": "TGTCTGAAAG", "switch fluorescence ratio": 1.01}, {"sequence": "CGACAGATCA", "switch fluorescence ratio": 0.969}, {"sequence": "ATGTGCTTGC", "switch fluorescence ratio": 1.07}, {"sequence": "TAAATTTCTT", "switch fluorescence ratio": 1.03}, {"sequence": "CGAATAGGTT", "switch fluorescence ratio": 0.966}, {"sequence": "GAGACATT", "switch fluorescence ratio": 0.963}, {"sequence": "ACAAGCGGGC", "switch fluorescence ratio": 1.07}, {"sequence": "CCTGACTTCC", "switch fluorescence ratio": 3.52}, {"sequence": "GTGACACT", "switch fluorescence ratio": 1.02}, {"sequence": "ATCTTAAACG", "switch fluorescence ratio": 1.03}, {"sequence": "AACTAACAGA", "switch fluorescence ratio": 1.07}, {"sequence": "GGTCACTCTG", "switch fluorescence ratio": 1.02}, {"sequence": "AGTTTTCAAT", "switch fluorescence ratio": 0.999}, {"sequence": "CATGGAGATA", "switch fluorescence ratio": 1.02}, {"sequence": "TTGCTAGGGT", "switch fluorescence ratio": 1}, {"sequence": "GTTCACGACC", "switch fluorescence ratio": 1.1}, {"sequence": "CCGGTAAGCC", "switch fluorescence ratio": 1.19}, {"sequence": "CCTTTTAGC", "switch fluorescence ratio": 1.05}, {"sequence": "GTACGCGGTA", "switch fluorescence ratio": 0.98}, {"sequence": "ACCAAAAGG", "switch fluorescence ratio": 0.981}, {"sequence": "TTTGTGCTGT", "switch fluorescence ratio": 0.968}, {"sequence": "AATTCGGAGG", "switch fluorescence ratio": 0.987}, {"sequence": "CGCTTGGTTC", "switch fluorescence ratio": 0.996}, {"sequence": "GAATTTGTC", "switch fluorescence ratio": 1.03}, {"sequence": "AAGCGCGG", "switch fluorescence ratio": 0.999}, {"sequence": "AATTGGGTG", "switch fluorescence ratio": 0.943}, {"sequence": "AGCTTTCATA", "switch fluorescence ratio": 0.969}, {"sequence": "ACGGGGCCCG", "switch fluorescence ratio": 0.986}, {"sequence": "GGCAGCACGT", "switch fluorescence ratio": 1.02}, {"sequence": "GGATATGAGA", "switch fluorescence ratio": 1.01}, {"sequence": "GGTACGCACG", "switch fluorescence ratio": 1.31}, {"sequence": "TCCAGGGCTC", "switch fluorescence ratio": 0.998}, {"sequence": "GGGTTAGTCC", "switch fluorescence ratio": 0.938}, {"sequence": "GCCTACGGAG", "switch fluorescence ratio": 1.07}, {"sequence": "TTGGATACAG", "switch fluorescence ratio": 1.02}, {"sequence": "GGTCGAGGAT", "switch fluorescence ratio": 1}, {"sequence": "GGAAAATTGT", "switch fluorescence ratio": 1.03}, {"sequence": "AAATTGAATC", "switch fluorescence ratio": 0.998}, {"sequence": "CCGTCTCTTG", "switch fluorescence ratio": 1.04}, {"sequence": "ACATACCTAA", "switch fluorescence ratio": 1.27}, {"sequence": "AACTCCGTGG", "switch fluorescence ratio": 1.09}, {"sequence": "TGACGGTCCT", "switch fluorescence ratio": 0.997}, {"sequence": "GGCCAACTTG", "switch fluorescence ratio": 1}, {"sequence": "GAGCAGTCCG", "switch fluorescence ratio": 0.967}, {"sequence": "CAGTGGTTAC", "switch fluorescence ratio": 1}, {"sequence": "TAGCTTATGG", "switch fluorescence ratio": 1.02}, {"sequence": "CCGTCTACTT", "switch fluorescence ratio": 1.07}, {"sequence": "AGTAAAAAGA", "switch fluorescence ratio": 0.981}, {"sequence": "AGGTCCCCTT", "switch fluorescence ratio": 1.02}, {"sequence": "GGCAGTAGGA", "switch fluorescence ratio": 1.02}, {"sequence": "TCGCCGGGTA", "switch fluorescence ratio": 0.988}, {"sequence": "CGGAGTCCGA", "switch fluorescence ratio": 1.01}, {"sequence": "CCACCAGGCT", "switch fluorescence ratio": 1.88}, {"sequence": "TCCTAACAGC", "switch fluorescence ratio": 1.09}, {"sequence": "AAAGTGACGG", "switch fluorescence ratio": 1.04}, {"sequence": "CACCCGGGTT", "switch fluorescence ratio": 1.08}, {"sequence": "CCCCCGCGGT", "switch fluorescence ratio": 1.07}, {"sequence": "TTTACCAGGA", "switch fluorescence ratio": 1.03}, {"sequence": "CGTTGTACAA", "switch fluorescence ratio": 0.98}, {"sequence": "CGACTTTCGA", "switch fluorescence ratio": 1.04}, {"sequence": "CGCTAAAAAT", "switch fluorescence ratio": 1.09}, {"sequence": "GAATACAGG", "switch fluorescence ratio": 1.04}, {"sequence": "AATGGATTCA", "switch fluorescence ratio": 1.11}, {"sequence": "AAAGGCCGAG", "switch fluorescence ratio": 0.989}, {"sequence": "CCTCGACAC", "switch fluorescence ratio": 3.88}, {"sequence": "TGCAGGTGCT", "switch fluorescence ratio": 1.3}, {"sequence": "GGATATTCT", "switch fluorescence ratio": 0.993}, {"sequence": "ATATTGGTTC", "switch fluorescence ratio": 1}, {"sequence": "CGTACATATG", "switch fluorescence ratio": 1.02}, {"sequence": "ACTTGGTC", "switch fluorescence ratio": 1.06}, {"sequence": "TACCCCCTAT", "switch fluorescence ratio": 1.19}, {"sequence": "CTTTTATTCG", "switch fluorescence ratio": 1.09}, {"sequence": "GATGTTAATT", "switch fluorescence ratio": 1.07}, {"sequence": "ACATGTGATG", "switch fluorescence ratio": 1.01}, {"sequence": "CTATGCTGAG", "switch fluorescence ratio": 0.991}, {"sequence": "TCATTGTGAC", "switch fluorescence ratio": 0.961}]}]}
